The list shows a part of the results. At the low end of the ranking, values are background and their order means little.

The target in this assay is T1, GST-Rok-C97-191 (UniProt O34857).
T1 sequence: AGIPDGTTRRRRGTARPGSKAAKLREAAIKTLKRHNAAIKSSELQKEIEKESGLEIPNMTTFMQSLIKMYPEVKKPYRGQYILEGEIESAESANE
Nature of the assay: protein binding microarray.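 Further: rank score from −0.5 (least bound) to 0.5 (best bound).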 The note with it: Rok is a gene silencer of Bacillus subtilis; high values mean tight binding; most listed sequences are background and not binding sites; double strand, one strand shown.
TAGAACTA showed a binding signal of 0.368 E-score.
With ATCACTGA the figure was 0.0402 E-score; with AACGAGCG, -0.164 E-score.
Sequence CATCAATG registered a binding signal of -0.125 E-score.
In the case of CTCGATAC, the binding signal stood at 0.0105 E-score.
For the sequence AAGTTAGA, the binding signal came out at 0.0777 E-score.
For CGAAGATA, the binding signal amounted to 0.302 E-score.
On to AACGCACC, for which the binding signal is -0.0778 E-score.
For the sequence ACGCAGTG, the binding signal is -0.141 E-score.
Take ACACGTAT: the binding signal was 0.0935 E-score.
With GAACCGAC, the binding signal is -0.0142 E-score.
Sequence ATCGCGAC had a binding signal of -0.0187 E-score.
Take GAAAACAA: the binding signal came out at 0.0717 E-score.
On to AGAACGAT, for which the binding signal is 0.0213 E-score.
Sequence AAACTGAC gave a binding signal of 0.0063 E-score.
For ATTCCAAA, the binding signal came out at 0.0756 E-score.
The sequence CAAATCGC yielded a binding signal of 0.0245 E-score.
For the sequence CCTCGAAC, the binding signal worked out at 0.0111 E-score.
For the sequence ACTAGCAA, the binding signal amounted to 0.254 E-score.
In turn, ATCAAACG yielded a binding signal of 0.0383 E-score.
In turn, CGCGCGAG gave a binding signal of -0.0238 E-score.
Consider ACCTCGAG, for which the binding signal is -0.178 E-score.
As for GATCGGCC, the binding signal was determined as 0.00658 E-score.
With AGTAGACT the figure was 0.185 E-score; with ACTGAAAT, -0.176 E-score; with TGGACTAA, 0.0374 E-score.
With AACTCCCA the figure was -0.0305 E-score; with GCGGGCTA, -0.127 E-score; with ATATGCAC, 0.209 E-score.
As for TAGGACCA, the binding signal was -0.171 E-score.
In turn, ATCATGTA registered a binding signal of 0.208 E-score.
The sequence GCATTACC had a binding signal of 0.0553 E-score.
The value for GCGTATCC was -0.121 E-score; that for AAGTGTTG was 0.0517 E-score; that for GTCAAACA was 0.00615 E-score.
AGACTACG yielded a binding signal of -0.0817 E-score.
CGGTTAAA showed a binding signal of 0.087 E-score.
With ACCAGGGA the figure was -0.213 E-score; with AGAAAACC, -0.0485 E-score.
Regarding AATTGATC, the binding signal is 0.0578 E-score.
Sequence ATCCCGTA registered a binding signal of 0.0373 E-score.
Sequence ACAGAGGA gave a binding signal of -0.0799 E-score.
Consider GCCAAAAA, for which the binding signal was -0.257 E-score.
In turn, GGACACCA gave a binding signal of -0.139 E-score.
Sequence AACTCCGC displayed a binding signal of 0.0252 E-score.
Turning to GCTGCTAA, the binding signal is -0.106 E-score.
The value for CTTAGGAC was -0.127 E-score.
The sequence GATTAACA returned a binding signal of 0.0584 E-score.
Sequence GAAGTAGC had a binding signal of 0.248 E-score.
On to CTCTACAC, for which the binding signal is 0.0535 E-score.
With AGTGGAAG, the binding signal is -0.0863 E-score.
Sequence GTATCCGA yielded a binding signal of 0.052 E-score.
ACCTAGGC came in with a binding signal of -0.211 E-score.
For GGGGACCA, the binding signal is -0.308 E-score.
Consider CATGGAAC, for which the binding signal was -0.0493 E-score.
With AGAGATAA the figure was 0.113 E-score.
The sequence TCCTAAAA showed a binding signal of 0.103 E-score.
ATATGATC: the binding signal was determined as 0.182 E-score.
With CGAATAAC the figure was 0.0299 E-score.
ACCATTCC had a binding signal of 0.0866 E-score.
Turning to GCATATGA, the binding signal was -0.0541 E-score.
With GCTCGTGA, the binding signal was -0.285 E-score.
In turn, ACCGGCAA showed a binding signal of 0.0104 E-score.
On to CACCGATA, for which the binding signal was 0.152 E-score.
For the sequence ACGCGTCC, the binding signal is -0.127 E-score.
As to ATAGCTCA, the binding signal is 0.0879 E-score.
The sequence AAGCGTGC had a binding signal of -0.247 E-score.
With GGGGGAAA the figure was -0.0766 E-score.
Sequence GTTGCGCA yielded a binding signal of -0.0627 E-score.
ACTATCCC: the binding signal came out at 0.13 E-score.
As for ATCGCGGC, the binding signal was -0.0217 E-score.
With AAGGATCC, the binding signal was -0.114 E-score.
The value for AACGAAGT was -0.078 E-score; that for ACATTAAA was 0.0634 E-score; that for CTTCAGGC was -0.0752 E-score.
For CTACTGAG, the binding signal is 0.136 E-score.
ATAACAAC registered a binding signal of 0.112 E-score.
Sequence AGTGATTC registered a binding signal of -0.111 E-score.
Sequence ACGATATG yielded a binding signal of 0.0576 E-score.
The value for ATCGCCAG was -0.0202 E-score; that for TGCCATAA was -0.0813 E-score.
The sequence CCCGATCC had a binding signal of -0.147 E-score.
Regarding AATCGCGG, the binding signal was -0.0191 E-score.
For the sequence CTCGATTA, the binding signal amounted to 0.12 E-score.
The sequence AACAAATT displayed a binding signal of 0.148 E-score.
With CCCCATAG the figure was -0.0793 E-score; with ACCGCTAG, 0.14 E-score.
AAATGATT: the binding signal was -0.118 E-score.
Turning to ACCGGGCA, the binding signal is -0.187 E-score.
On to AGAATGCT, for which the binding signal is -0.108 E-score.
CGCGCAAA yielded a binding signal of 0.0198 E-score.
ATTCACTA showed a binding signal of 0.174 E-score.
The value for TATCGACA was 0.184 E-score.
ACAAGCTG yielded a binding signal of -0.259 E-score.
For AAATGATA, the binding signal is 0.305 E-score.
With TAGCTGGA the figure was -0.112 E-score; with CCGGGGCC, -0.282 E-score; with AAACCGAA, 0.116 E-score.
The sequence ATTCGTTG gave a binding signal of 0.195 E-score.
ATCATGCC registered a binding signal of -0.0351 E-score.
As to GTAGCCTA, the binding signal was -0.023 E-score.
GCCGGGAA returned a binding signal of -0.249 E-score.
On to ACTCGTTG, for which the binding signal was -0.039 E-score.
ATTCTTGC returned a binding signal of 0.103 E-score.
TAGCCCCA displayed a binding signal of -0.0287 E-score.
With AATCTCGA, the binding signal came to 0.0718 E-score.
The sequence CCGCTGGA returned a binding signal of -0.202 E-score.
GGCAGGCA displayed a binding signal of -0.3 E-score.
For ATTACGGC, the binding signal came to 0.0217 E-score.
The value for GACCTCTC was -0.162 E-score; that for ACGAACAT was 0.0324 E-score; that for GGCCTACC was -0.0395 E-score.
The value for GCCTGAGC was -0.202 E-score; that for CTTCGAAG was -0.084 E-score; that for CCTCAACG was -0.103 E-score.
Consider AGGTATCA, for which the binding signal was found to be 0.24 E-score.
In turn, AGCAAAGA came in with a binding signal of 0.00542 E-score.
The value for GTAGACCA was 0.0221 E-score; that for GTAAACAC was 0.113 E-score; that for ACCGATTA was 0.214 E-score.
Sequence ATGATTGC yielded a binding signal of 0.0696 E-score.
As to ATTCACCC, the binding signal is -0.0631 E-score.
ATCTTCTA had a binding signal of 0.26 E-score.
The sequence ACCGGCGA registered a binding signal of -0.16 E-score.
GTGCCTCA gave a binding signal of -0.186 E-score.
In turn, GTAAGACA yielded a binding signal of 0.0636 E-score.
Take CCATTGGG: the binding signal was -0.0114 E-score.
The sequence GTGGGATA had a binding signal of 0.061 E-score.
With CTGAGTAA the figure was 0.0346 E-score.
Consider ACGAGGAA, for which the binding signal was -0.0591 E-score.
CACAATAC yielded a binding signal of 0.145 E-score.
With GTTGCAAA the figure was -0.00796 E-score.
In turn, CACTAGCA displayed a binding signal of -0.154 E-score.
Sequence CGATCCGC returned a binding signal of -0.0924 E-score.
CATCACGG displayed a binding signal of -0.21 E-score.
With GCAGTTCA, the binding signal was -0.00198 E-score.
Take AGACCGTA: the binding signal was -0.11 E-score.
For the sequence TCGTACCA, the binding signal is -0.0569 E-score.
For the sequence CGTCGACA, the binding signal was -0.00897 E-score.
Sequence AACACTCT yielded a binding signal of 0.0196 E-score.
CCTCTTCC came in with a binding signal of -0.172 E-score.
With ATAGCGCG, the binding signal worked out at 0.278 E-score.
With ACATGCTA the figure was 0.33 E-score; with ACTCTTGA, -0.0447 E-score.
Sequence ACATATGA returned a binding signal of 0.00179 E-score.
On to CGGAAGAA, for which the binding signal is -0.185 E-score.
With ACCGAGCG, the binding signal was -0.105 E-score.
The value for GAGCGTTA was 0.0369 E-score; that for GCTGTGAC was 0.0248 E-score.
On to ATTGCCTG, for which the binding signal is -0.108 E-score.
The value for AGGTACCG was 0.0191 E-score; that for ACCATCGC was -0.0189 E-score; that for CCACCGCG was -0.199 E-score.
With AGAGGTAC, the binding signal worked out at 0.0383 E-score.
As to GCAAAGCA, the binding signal was -0.0549 E-score.
As to AAAGCGCC, the binding signal is -0.0581 E-score.
Sequence CTCCGCTA yielded a binding signal of -0.137 E-score.
CGTATAAA: the binding signal is 0.133 E-score.
Turning to AGAGCGGA, the binding signal is -0.233 E-score.
In the case of CACGACCA, the binding signal was -0.0663 E-score.
Regarding GTGTATCA, the binding signal was 0.0722 E-score.
Sequence ACTATGCG had a binding signal of 0.107 E-score.
In turn, CCCACACG came in with a binding signal of -0.192 E-score.
With CATCTACG, the binding signal is -0.0119 E-score.
Sequence AACTATCT displayed a binding signal of 0.294 E-score.
With CACAATGA the figure was 0.00707 E-score.
Sequence CCTAAATC came in with a binding signal of -0.11 E-score.
The sequence GTCGCATA had a binding signal of 0.0707 E-score.
The value for AGCATTTG was -0.0352 E-score; that for GCTCTCGA was -0.114 E-score.
For the sequence CCACGGAC, the binding signal was -0.178 E-score.
Turning to GACATTGC, the binding signal is -0.183 E-score.
